Results from publication PMC4336329 (PLoS ONE, 2015).
The campaign covered roughly 310,000 compounds. About 14,000 (4.5%) showed an effect of 50% or more. Effects have a minus sign here. The list shows a part of the results.

target: human ether-à-go-go-related gene (hERG) potassium channel (human, UniProt Q12809); experiment: primary screen, population patch clamp on CHO cells stably expressing hERG
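Further: peak tail current of the secondary pulse compared with the same well before compound.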

Sequence of human ether-à-go-go-related gene (hERG) potassium channel (Q12809 whole entry, looked up): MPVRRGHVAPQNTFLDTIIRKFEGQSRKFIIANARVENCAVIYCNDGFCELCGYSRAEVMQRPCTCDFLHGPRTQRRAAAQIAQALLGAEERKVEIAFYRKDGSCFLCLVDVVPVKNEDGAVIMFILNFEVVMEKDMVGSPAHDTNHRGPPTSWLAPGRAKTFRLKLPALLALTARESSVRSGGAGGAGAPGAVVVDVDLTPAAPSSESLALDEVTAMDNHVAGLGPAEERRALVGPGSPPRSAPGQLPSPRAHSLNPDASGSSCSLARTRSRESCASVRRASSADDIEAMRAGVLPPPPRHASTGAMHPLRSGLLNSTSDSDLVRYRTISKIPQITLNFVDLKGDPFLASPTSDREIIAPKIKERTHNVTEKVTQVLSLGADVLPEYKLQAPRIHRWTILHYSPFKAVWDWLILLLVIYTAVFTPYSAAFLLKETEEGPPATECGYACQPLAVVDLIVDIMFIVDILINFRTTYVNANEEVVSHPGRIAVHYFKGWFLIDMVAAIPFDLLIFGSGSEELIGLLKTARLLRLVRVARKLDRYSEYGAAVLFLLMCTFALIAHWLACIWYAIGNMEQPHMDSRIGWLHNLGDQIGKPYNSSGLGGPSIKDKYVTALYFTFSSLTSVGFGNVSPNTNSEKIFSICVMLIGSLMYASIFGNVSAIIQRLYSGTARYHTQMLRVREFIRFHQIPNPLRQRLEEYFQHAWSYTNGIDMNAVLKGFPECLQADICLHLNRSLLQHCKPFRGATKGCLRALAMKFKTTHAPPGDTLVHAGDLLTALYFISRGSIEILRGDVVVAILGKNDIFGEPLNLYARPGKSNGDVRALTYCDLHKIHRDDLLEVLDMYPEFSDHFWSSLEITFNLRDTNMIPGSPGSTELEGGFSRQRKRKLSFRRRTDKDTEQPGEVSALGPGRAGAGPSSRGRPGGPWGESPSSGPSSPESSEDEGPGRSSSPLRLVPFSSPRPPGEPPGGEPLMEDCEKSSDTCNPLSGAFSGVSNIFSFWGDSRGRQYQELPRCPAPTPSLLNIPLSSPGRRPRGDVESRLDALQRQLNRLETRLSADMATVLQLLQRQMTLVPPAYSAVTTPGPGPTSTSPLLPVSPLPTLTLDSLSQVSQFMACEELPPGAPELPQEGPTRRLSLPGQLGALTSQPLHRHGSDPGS

SMILES	hERG current change (%, negative = inhibition) at 10uM
Cc1cc(NC(=O)CCN2CCC(C)CC2)ccc1Br.Cl	-57.6%
CC(C(=O)c1c[nH]c2ccccc12)N1CCN(C(=O)c2ccco2)CC1 (centres unmarked)	-8.49%
Br.CN=c1nc(-c2ccccc2)n(-c2ccccc2)s1	-21.9%
O=C1NC(C(=O)O)=CC(c2ccc([N+](=O)[O-])cc2)N1 (centres unmarked)	14.4%
Cc1ccc(S(=O)(=O)CC(=O)N(CCCN2CCOCC2)c2nc3c(F)cccc3s2)cc1.Cl	-18.1%
O=C(CCNC(=O)c1ccco1)Nc1ccccc1N1CCOCC1	18.8%
COc1ccc(NC(=O)COC(=O)C2CCN(S(=O)(=O)c3ccccc3)CC2)cc1Cl	-21.2%
CCCCc1c(O)cc(C)[nH]c1=O	21.4%
O=C(/C=C/c1ccco1)NC(=S)Nc1cc(C(F)(F)F)ccc1N1CCOCC1	17.4%
COc1ccc(CCNC(=O)CSc2ccc(NC(C)=O)cc2)cc1OC	19%
O=C(O)C1OC2OC3(CCCCC3)OC2C2OC3(CCCCC3)OC12 (centres unmarked)	3.07%
CC(=O)Nc1cc(N2C(=O)CCC2=O)ccc1Cl	-1.27%
O=C(CN(Cc1ccccc1)S(=O)(=O)c1ccccc1)N1CCOCC1	-0.744%
CCC(=O)NCCc1nc2cc(NC(=O)c3cccs3)ccc2n1C	5.09%
Cc1cnn(CCC(=O)NNC(=S)Nc2cccc(Cl)c2)c1	0.594%
COC(=O)C1=C(c2cc3ccccc3o2)C[C@@H]2CC[C@H]1N2C(=O)N1CCOCC1	2.81%
Cc1cccc(C(=O)Nc2nnc(Cc3c[nH]c4ccccc34)s2)c1	12.7%
CCNC(=O)COc1cccc(C(=O)NCc2ccccc2)c1	3.61%
COc1ccc(C2(CNC(=O)Cc3ccc(OC)c(OC)c3)CCOCC2)cc1	13%
CCOC(=O)c1[nH]c2ccccc2c1NC(=O)c1ccc(S(=O)(=O)N2CCCC2)cc1	0.437%
O=C(CCCC(=O)N(CC(=O)NC1CCCCC1)c1ccccc1F)Nc1ccccn1	-3.61%
O=C(NCCc1ccccc1)C1CCC(CNS(=O)(=O)c2ccc(F)cc2)CC1 (centres unmarked)	4.08%

SMILES	hERG current change (%, negative = inhibition) at 10uM
CN(c1ccccc1)S(=O)(=O)c1ccc2[nH]c(=O)[nH]c2c1	4.25%
O=C(c1ccccn1)N(Cc1ccco1)C1(C(=O)NC2CCCC2)CCCCC1	-5.62%
CC#C[C@@H](CC)c1ccc2ccn(C)c2c1	-4.51%
Cc1cc(C)c(NC(=O)CSc2nc(=O)n(CCN3CCOCC3)c3c2CCCC3)c(C)c1	-28.3%
CCOC(=O)N1CCN(C(=O)c2cn(CC(C)C)c(=O)c3c2c2ccccc2n3C)CC1	-24.4%
Cc1cccc[n+]1CC(=O)c1ccccc1.[Br-]	7.9%
O=C1C=C(NNC(=O)c2ccncc2)CC(c2ccccc2)C1 (centres unmarked)	-1.64%
NNC(=O)c1ccc(CSc2nc3ccccc3[nH]2)cc1	21.8%
Cc1cc(C)nc(NS(=O)(=O)c2ccc(NC(=O)CCC(=O)O)cc2)n1	14.8%
COc1ccccc1Nc1cc(C(=O)NC2CCCC2)c2ccccc2n1	12.9%
O=C(CCSCc1ccc(Cl)cc1)NCc1cccs1	-44.9%
Cc1cc(C)c(NS(=O)(=O)c2ccc3c(c2)NC(=O)C(C)C(=O)N3)c(C)c1 (centres unmarked)	2.12%
O=C1/C(=C/c2ccc(O)cc2)SC(=S)N1CC1CCCO1 (centres unmarked)	4.44%
COCCNC(=O)c1ccc(CS(=O)(=O)c2ccccc2OC)o1	14.1%
Cc1ccc(C)c(S(=O)(=O)N2CCCOC2CNC(=O)C(=O)NCc2ccco2)c1 (centres unmarked)	11.6%
Nc1ccc(-c2nnc(-c3ccc(N)cc3)o2)cc1	-7.98%
Cn1cc(CN2CCN(CC(C)(C)C)C(CCO)C2)c2ccccc21 (centres unmarked)	5.09%
CC(C)C1NC(C(=O)O)Cc2c1[nH]c1ccccc21 (centres unmarked)	-19.5%
COc1ccc(CCNc2ccc(C(CC(N)=O)NC(=O)c3cc(OC)ccc3OC)cc2[N+](=O)[O-])cc1 (centres unmarked)	-0.728%
O=[N+]([O-])c1ccc(CN2CCOCCOCCN(Cc3ccc([N+](=O)[O-])cc3)CCOCC2)cc1	-77.8%
COc1ccc(NC(=O)Nc2cccs2)cn1	11.5%
CCOc1cc(N2CCOCC2)c(OCC)cc1NC(=O)c1c(-c2ccccc2)noc1C	-25.5%
